Laboratory results: the supplement of paper PMC8728848
The list shows a part of the results.

Key:
Assay in all cases: glycan array binding signal (z-score within array); higher = stronger binding
Details in all cases: glycan notation: IUPAC condensed, linker removed
[1] = target: Fuc(a1-2)[Gal(a1-3)]Gal(b1-3)GlcNAc(b1-6)GalNAc
How it was run: (§1)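 Glycan array binding is given as a within-array Z-score, which can be read as non-binding when negative. The arrays, 3228 of them, came from the Consortium for Functional Glycomics database and were retained only where the protein sequence was available. Z-scores were averaged across arrays of the same protein sequence at different concentrations or buffers and across linkers.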

[2] = target: Fuc(a1-2)[Gal(a1-3)]Gal(b1-4)Glc
How it was run: as §1

[3] = target: Fuc(a1-2)[Gal(a1-3)]Gal(b1-4)GlcNAc
How it was run: as §1

[4] = target: Fuc(a1-2)[Gal(a1-3)]Gal(b1-4)GlcNAc(b1-2)Man
How it was run: as §1

[5] = target: Fuc(a1-2)[Gal(a1-3)]Gal(b1-4)GlcNAc(b1-2)Man(a1-3)[Fuc(a1-2)[Gal(a1-3)]Gal(b1-4)GlcNAc(b1-2)Man(a1-6)]Man(b1-4)GlcNAc(b1-4)GlcNAc
How it was run: as §1

[6] = target: Fuc(a1-2)[Gal(a1-3)]Gal(b1-4)GlcNAc(b1-2)Man(a1-3)[Fuc(a1-2)[Gal(a1-3)]Gal(b1-4)GlcNAc(b1-2)Man(a1-6)]Man(b1-4)GlcNAc(b1-4)[Fuc(a1-6)]GlcNAc
How it was run: as §1

[7] = target: Fuc(a1-2)[Gal(a1-3)]Gal(b1-4)GlcNAc(b1-3)GalNAc
How it was run: as §1

[8] = target: Fuc(a1-2)[Gal(a1-3)]Gal(b1-4)GlcNAc(b1-3)[Fuc(a1-2)[Gal(a1-3)]Gal(b1-4)GlcNAc(b1-6)]GalNAc
How it was run: as §1

[9] = target: Fuc(a1-2)[Gal(a1-3)]Gal(b1-4)GlcNAc(b1-6)GalNAc
How it was run: as §1

[10] = target: Fuc(a1-2)[Gal(a1-3)]Gal(b1-4)[Fuc(a1-3)]Glc
How it was run: as §1

[11] = target: Fuc(a1-2)[Gal(a1-3)]Gal(b1-4)[Fuc(a1-3)]GlcNAc
How it was run: as §1

[12] = target: Fuc(a1-2)[Gal(a1-3)]Gal(b1-4)[Fuc(a1-3)]GlcNAc(b1-3)GalNAc
How it was run: as §1

[13] = target: Fuc(a1-2)[Gal(a1-4)]Gal(b1-4)GlcNAc
How it was run: as §1

[14] = target: Fuc(a1-2)[GalNAc(a1-3)]Gal
How it was run: as §1

[15] = target: Fuc(a1-2)[GalNAc(a1-3)]Gal(b1-3)GalNAc(a1-3)[Fuc(a1-2)]Gal(b1-4)GlcNAc
How it was run: as §1

[16] = target: Fuc(a1-2)[GalNAc(a1-3)]Gal(b1-3)GalNAc(b1-3)Gal(a1-4)Gal(b1-4)Glc
How it was run: as §1

[17] = target: Fuc(a1-2)[GalNAc(a1-3)]Gal(b1-3)GlcNAc
How it was run: as §1

[18] = target: Fuc(a1-2)[GalNAc(a1-3)]Gal(b1-3)GlcNAc(b1-2)Man(a1-3)[Fuc(a1-2)[GalNAc(a1-3)]Gal(b1-3)GlcNAc(b1-2)Man(a1-6)]Man(b1-4)GlcNAc(b1-4)GlcNAc
How it was run: as §1

[19] = target: Fuc(a1-2)[GalNAc(a1-3)]Gal(b1-3)GlcNAc(b1-2)Man(a1-3)[Fuc(a1-2)[GalNAc(a1-3)]Gal(b1-3)GlcNAc(b1-2)Man(a1-6)]Man(b1-4)GlcNAc(b1-4)[Fuc(a1-6)]GlcNAc
How it was run: as §1

[20] = target: Fuc(a1-2)[GalNAc(a1-3)]Gal(b1-3)GlcNAc(b1-3)GalNAc
How it was run: as §1

[21] = target: Fuc(a1-2)[GalNAc(a1-3)]Gal(b1-3)GlcNAc(b1-6)GalNAc
How it was run: as §1

[22] = target: Fuc(a1-2)[GalNAc(a1-3)]Gal(b1-4)Glc
How it was run: as §1

[23] = target: Fuc(a1-2)[GalNAc(a1-3)]Gal(b1-4)GlcNAc
How it was run: as §1

[24] = target: Fuc(a1-2)[GalNAc(a1-3)]Gal(b1-4)GlcNAc(b1-2)Man
How it was run: as §1

[25] = target: Fuc(a1-2)[GalNAc(a1-3)]Gal(b1-4)GlcNAc(b1-2)Man(a1-3)[Fuc(a1-2)[GalNAc(a1-3)]Gal(b1-4)GlcNAc(b1-2)Man(a1-6)]Man(b1-4)GlcNAc(b1-4)GlcNAc
How it was run: as §1

[26] = target: Fuc(a1-2)[GalNAc(a1-3)]Gal(b1-4)GlcNAc(b1-2)Man(a1-3)[Fuc(a1-2)[GalNAc(a1-3)]Gal(b1-4)GlcNAc(b1-2)Man(a1-6)]Man(b1-4)GlcNAc(b1-4)[Fuc(a1-6)]GlcNAc
How it was run: as §1

[27] = target: Fuc(a1-2)[GalNAc(a1-3)]Gal(b1-4)GlcNAc(b1-2)Man(a1-3)[GalNAc(a1-3)[Fuc(a1-2)]Gal(b1-4)GlcNAc(b1-2)Man(a1-6)]Man(b1-4)GlcNAc(b1-4)GlcNAc
How it was run: as §1

[28] = target: Fuc(a1-2)[GalNAc(a1-3)]Gal(b1-4)GlcNAc(b1-3)Gal(b1-4)GlcNAc
How it was run: as §1

[29] = target: Fuc(a1-2)[GalNAc(a1-3)]Gal(b1-4)GlcNAc(b1-3)Gal(b1-4)GlcNAc(b1-3)Gal(b1-4)GlcNAc
How it was run: as §1

[30] = target: Fuc(a1-2)[GalNAc(a1-3)]Gal(b1-4)GlcNAc(b1-3)GalNAc
How it was run: as §1

[31] = target: Fuc(a1-2)[GalNAc(a1-3)]Gal(b1-4)GlcNAc(b1-3)[Fuc(a1-2)[GalNAc(a1-3)]Gal(b1-4)GlcNAc(b1-6)]GalNAc
How it was run: as §1

[32] = target: Fuc(a1-2)[GalNAc(a1-3)]Gal(b1-4)GlcNAc(b1-6)GalNAc
How it was run: as §1

[33] = target: Fuc(a1-2)[GalNAc(a1-3)]Gal(b1-4)[Fuc(a1-3)]GlcNAc
How it was run: as §1

[34] = target: Fuc(a1-2)[GalNAc(a1-3)]Gal(b1-4)[Fuc(a1-3)]GlcNAc(b1-3)GalNAc
How it was run: as §1

[35] = target: Fuc(a1-2)[GalNAc(a1-4)]Gal(b1-4)GlcNAc
How it was run: as §1

[36] = target: Fuc(a1-2)[GalNAc(b1-3)]Gal
How it was run: as §1

[37] = target: Fuc(a1-3)GlcNAc
How it was run: as §1

[38] = target: Fuc(a1-3)[Gal(b1-4)]Glc6S
How it was run: as §1

[39] = target: Fuc(a1-3)[Gal(b1-4)]GlcNAc
How it was run: as §1

[40] = target: Fuc(a1-3)[Gal(b1-4)]GlcNAc(b1-2)Man
How it was run: as §1

[41] = target: Fuc(a1-3)[Gal(b1-4)]GlcNAc(b1-2)Man(a1-3)[Fuc(a1-3)[Gal(b1-4)]GlcNAc(b1-2)Man(a1-6)]Man(b1-4)GlcNAc(b1-4)GlcNAc
How it was run: as §1

[42] = target: Fuc(a1-3)[Gal(b1-4)]GlcNAc(b1-2)Man(a1-3)[Fuc(a1-3)[Gal(b1-4)]GlcNAc(b1-2)Man(a1-6)]Man(b1-4)GlcNAc(b1-4)[Fuc(a1-6)]GlcNAc
How it was run: as §1

[43] = target: Fuc(a1-3)[Gal(b1-4)]GlcNAc(b1-2)Man(a1-6)[Gal(b1-4)GlcNAc(b1-2)Man(a1-3)]Man(b1-4)GlcNAc(b1-4)GlcNAc
How it was run: as §1

[44] = target: Fuc(a1-3)[Gal(b1-4)]GlcNAc(b1-3)Gal(b1-3)[Fuc(a1-4)]GlcNAc
How it was run: as §1

[45] = target: Fuc(a1-3)[Gal(b1-4)]GlcNAc(b1-3)Gal(b1-4)[Fuc(a1-3)]GlcNAc
How it was run: as §1

B1: HPAIIITrx (Helix pomatia), Q1KM18 (protein)
chain: MLFVTIISLGLLAIVHGQCALKTIAFSAAIDREQTFDANQVVIYDIVITNHGNAYDNSTGLFTAPVDGMYSFQLNLLTIKEKEGWLELVHNGQLKVSVYAKQDSTYDSSSNSVIIKMKEGDRVNVRAHKKSGLFGRDDELYNTFSGHFLSGL
- glycan array binding signal (z-score) [1]: -0.083
- glycan array binding signal (z-score) [2]: -0.198
- glycan array binding signal (z-score) [3]: -0.421
- glycan array binding signal (z-score) [4]: -0.228
- glycan array binding signal (z-score) [5]: -0.224
- glycan array binding signal (z-score) [6]: -0.121
- glycan array binding signal (z-score) [7]: -0.333
- glycan array binding signal (z-score) [8]: -0.093
- glycan array binding signal (z-score) [9]: -0.362
- glycan array binding signal (z-score) [10]: -0.413
- glycan array binding signal (z-score) [11]: -0.173
- glycan array binding signal (z-score) [12]: 0.401
- glycan array binding signal (z-score) [13]: -0.326
- glycan array binding signal (z-score) [14]: 2.1
- glycan array binding signal (z-score) [15]: 4.37
- glycan array binding signal (z-score) [16]: 3.47
- glycan array binding signal (z-score) [17]: 1.38
- glycan array binding signal (z-score) [18]: 1.46
- glycan array binding signal (z-score) [19]: 1.28
- glycan array binding signal (z-score) [20]: 0.992
- glycan array binding signal (z-score) [21]: 1.35
- glycan array binding signal (z-score) [22]: 2.02
- glycan array binding signal (z-score) [23]: 2.1
- glycan array binding signal (z-score) [24]: 2.83
- glycan array binding signal (z-score) [25]: 6.33
- glycan array binding signal (z-score) [26]: 0.882
- glycan array binding signal (z-score) [27]: 0.191
- glycan array binding signal (z-score) [28]: 2.44
- glycan array binding signal (z-score) [29]: 2.94
- glycan array binding signal (z-score) [30]: 1.41
- glycan array binding signal (z-score) [31]: 3.2
- glycan array binding signal (z-score) [32]: 1.74
- glycan array binding signal (z-score) [33]: 2.27
- glycan array binding signal (z-score) [34]: -0.046
- glycan array binding signal (z-score) [35]: 3.52
- glycan array binding signal (z-score) [36]: -0.233
- glycan array binding signal (z-score) [37]: -0.277
- glycan array binding signal (z-score) [38]: 0.185
- glycan array binding signal (z-score) [39]: -0.236
- glycan array binding signal (z-score) [40]: -0.237
- glycan array binding signal (z-score) [41]: -0.171
- glycan array binding signal (z-score) [42]: -0.284
- glycan array binding signal (z-score) [43]: -0.33
- glycan array binding signal (z-score) [44]: -0.089
- glycan array binding signal (z-score) [45]: -0.242
